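Exposure lasted 48 hours, with cells grown in 96-well plates and compounds tested at five concentrations. GI50 = concentration required for 50% inhibition of growth. At the TGI there is no net growth.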
Test system: NCI-H322M lung
Assay: DTP human tumour cell line panel, 48 h

Structure (SMILES)	GI50	TGI
Cn1cc(-c2nn3cc(-c4ccncc4)nc3s2)c2cc(Cl)ccc21	7.94 µM	25.6 µM
CCOC(=O)c1c(NCC(=O)Nc2cccc([N+](=O)[O-])c2)sc2c1CCCC2	1.45 µM	4.03 µM

— PubChem BioAssay (NCI)
